The supplement of paper PMC4604168 (melanoma cell lines)
Some of the results follow. Many values rest on one well or one pass, so single values are uncertain.

test system: SkMel28; experiment: cell count relative to DMSO control; melanoma cells; higher = more viable cells; settings: library dose: standard library concentration; 72 h
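Note: cells treated in 1,536-well plates, then fixed and DAPI-stained, with nuclei counted from automated high-throughput microscope images.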

| SMILES | cell count [%] |
| --- | --- |
| Cn1cc(/C=C2\C(=O)Nc3cccnc32)c2ccccc21 + CCCCCCCCCCCC1=C(O)C(=O)C=C(O)C1=O [Embelin] (first compound 2 µM, partner dose 6 µM) | 94.3 |
| COc1ccc2c(c1)CCC1C2CCC2(C)C(NCCCCCCN3C(=O)C=CC3=O)CCC12 (stereo unspecified) + CCCCCCCCCCCC1=C(O)C(=O)C=C(O)C1=O [Embelin] (first compound 2 µM, partner dose 6 µM) | 47.3 |
| COc1cc2ncnc(Nc3ccc(Oc4ccccc4)cc3)c2cc1OC + Cn1cc(/C=C2\C(=O)Nc3cccnc32)c2ccccc21 [GW441756] (first compound 10 µM, partner dose 2 µM) | 60.1 |
| Cc1cc([N+](=O)[O-])ccc1NS(=O)(=O)c1cc(Cl)ccc1Cl + COc1cc(N2CCC(N3CCN(C)CC3)CC2)ccc1Nc1ncc(Cl)c(Nc2ccccc2S(=O)(=O)C(C)C)n1 [NVP-TAE684] (first compound 5 µM, partner dose 0.4 µM) | 55.9 |
| N#Cc1c(O)c2c(-c3ccc(-c4ccccc4O)cc3)csc2[nH]c1=O + COc1cc(N2CCC(N3CCN(C)CC3)CC2)ccc1Nc1ncc(Cl)c(Nc2ccccc2S(=O)(=O)C(C)C)n1 [NVP-TAE684] (first compound 10 µM, partner dose 0.4 µM) | 76.8 |
| O=S(=O)(c1ccccc1)N(CC(F)(F)F)c1ccc(C(O)(C(F)(F)F)C(F)(F)F)cc1 + Cc1cc([N+](=O)[O-])ccc1NS(=O)(=O)c1cc(Cl)ccc1Cl [FH535] (first compound 7 µM, partner dose 5 µM) | 48.7 |
